Here are results for two molecules from US20070269437A1, “Pro-Inflammatory and Anti-Inflammatory Antibodies Against the Heparin-Binding Protein (Hbp)” (Leukotech A/S, priority 2003, published 2007).

The subject of the experiment is production of IL-6 in whole human blood. Briefly: Whole blood screening assay (IL-6 secretion).

“And” between values parts separate entries of the source, which are not always exact repeats. Equal values may be shown once.

“hHBP 20-44 peptide: fragment of human HBP consisting amino acids 20-44 according to SEQ ID NO: 1 (NQGRHFCGGALIHARFVMTAASCFQ; listed as Homo sapiens)”: the “effect on IL-6 secretion (in words)” value is “enhanced the IL-6 secretion” (added alone) and “enhanced the IL-6 secretion” (added together with PGN). The IL-6 runs as follows: (hHBP 20-44 peptide 90 μg/ml alone) 60.7 pg/mL and 51.9 pg/mL; (hHBP 20-44 peptide 180 μg/ml alone) 122.7 pg/mL and 142.7 pg/mL; (hHBP 20-44 peptide 360 μg/ml alone) 510.5 pg/mL and 366.6 pg/mL.

B1: HBP: heparin-binding protein isolated from azurophile granules of human PMNs (protein, UniProt P20160 27-248, looked up)
Azurocidin: IVGGRKARPRQFPFLASIQNQGRHFCGGALIHARFVMTAASCFQSQNPGVSTVVLGAYDLRRRERQSRQTFSISSMSENGYDPQQNLNDLMLLQLDREANLTSSVTILPLPLQNATVEAGTRCQVAGWGSQRSGGRLSRFPRFVNVTVTPEDQCRPNNVCTGVLTRRGGICNGDGGTPLVCEGLAHGVASFSLGPCGRGPDFFTRVALFRDWIDGVLNNPGP
For the molecule B1, the “amplification of the cytokine secretion induced by bacterial products” value (160 μM HBP per ml WB) is given as “at least three-fold amplification”.
